In the RNAGym collection of RNA variant scans (doi:10.1101/gad.245936.114) one finds nonsense suppression data, which are given here for 167 variants.

B1: tRNA (parent)
chain: CUCUCGGUAGCCAAGUUGGUUUAAGGCGCAAGACUUUAAUUUAUCACUACGAAAUCUUGAGAUCGGGCGUUCGACUCGCCCCCGGGAGAUUUUUUCCUCGAGCAA

Variants at the floor of the assay are shown more often than the library holds them. A value given as a limit tells only on which side of the number the result lay.

The variants in the data set derive from B1. As to the kind of experiment: nonsense suppression (GFP-seq) (ratio to wild type); higher = more function; SUP4oc tRNA, yeast GFP reporter sort-seq. A digest of the protocol:
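Yeast were grown in raffinose/galactose medium with 80 mg/L adenine, each strain bearing a genome-integrated ochre-suppressor tRNA variant from a ~3% random-mutation library, a galactose-driven GFP ochre reporter, and RFP. After sorting into GFP/RFP bins, every bin was sequenced on an Illumina platform at phred ≥30. The GFPSEQ value, a measure of nonsense suppression, is the weighted bin median GFP/RFP relative to the unmutated parent tRNA, using each variant's estimated cell share per bin as the weight. Only variants with ≥100 reads and ≥30 cells were included.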
With A14G A30G G88C, the nonsense suppression is no more than 0.026.

With U8C G67C, the nonsense suppression was no more than 0.026. The figure for U2G U16A A23C is no more than 0.026; for A14U A33C G67C A87C it is no more than 0.026.

In the case of G7A G25C A30G, the nonsense suppression was no more than 0.026. On to G25A A62C C79U, for which the nonsense suppression was no more than 0.026. The figure for A13G A54C C64U G85C is no more than 0.026; for C5G G67A it is no more than 0.026. Turning to G69U G84U, the nonsense suppression was no more than 0.026. With C5U C11U U17C U70A, the nonsense suppression was no more than 0.026. Regarding U22C U63C C68U, the nonsense suppression stood at 0.0629. For A23C A54G G65A the value was no more than 0.026; for G18A G73U C79A, no more than 0.026; for C1G G73A, 0.0631. The figure for G15U A24G A60G A87C G88A is no more than 0.026. The figure for U2C G19A C75G C77A is no more than 0.026. As to G28U G59U, the nonsense suppression was no more than 0.026.

Take C79G C82A: the nonsense suppression was no more than 0.026. For C11G A33G the value was no more than 0.026; for C1U G18A U76G, no more than 0.026. C68G G78A: the nonsense suppression was no more than 0.026. C11A G18U U57C C68G: the nonsense suppression is no more than 0.026. As to C3A C82A, the nonsense suppression was no more than 0.026. The figure for C3U G18U G25C is no more than 0.026; for U21A A24G G66C it is no more than 0.026.

Take G78A C81G: the nonsense suppression stood at 0.0732. The figure for G18U A24C A31G C80A is no more than 0.026; for C5U A14U A24C it is no more than 0.026.

For C12A A14G, the nonsense suppression was no more than 0.026.

With U8A A24G, the nonsense suppression was no more than 0.026.

For U35G A54G U57A G84C, the nonsense suppression is no more than 0.026. Consider C11G A23G C64G A87C, for which the nonsense suppression was no more than 0.026. In the case of C75G G86A A87C, the nonsense suppression was no more than 0.026. The figure for C11U G18C U22G U57A is no more than 0.026; for C3A G65C it is no more than 0.026. For A13G U20A G26C U70A, the nonsense suppression is no more than 0.026. In the case of C1U C11U, the nonsense suppression was no more than 0.026.

For G61C C77G, the nonsense suppression came to 0.0296. For the variant G61C C77U, the nonsense suppression was determined as 0.0267. The figure for C5U G6U U16A is no more than 0.026. The figure for C5G G15A A54G C82U is no more than 0.026.

For G10U A13C U57A C75G, the nonsense suppression is no more than 0.026. For G18C C75A the value was no more than 0.026; for A23G G84U G86U, no more than 0.026. The figure for C12A G15A G18C A31G A54C C77A is no more than 0.026; for C1U G26A U57C it is no more than 0.026. Turning to G84C G85C G88C, the nonsense suppression is no more than 0.026. For the variant U22G U71C, the nonsense suppression is no more than 0.026. For C3A U8A G32U A62C the value was no more than 0.026; for U22C C29G, no more than 0.026. Regarding A23G C56A U63C A74C G85C, the nonsense suppression was no more than 0.026. As to C11G U20G A24U A30G, the nonsense suppression was no more than 0.026. For A24G A33C C77G the value was no more than 0.026; for G59U A74C, no more than 0.026. Regarding A13U G69C, the nonsense suppression came out at 0.0304. For the variant G25A G61A G73C, the nonsense suppression was no more than 0.026. For the variant G7A G15U U55C A74G, the nonsense suppression was no more than 0.026.

On to A24U C34U, for which the nonsense suppression is no more than 0.026. U16A A30C: the nonsense suppression is no more than 0.026. For the variant A9U C12U U16C U57G A62G, the nonsense suppression is no more than 0.026. For C3U C5A G10C G86A the value was no more than 0.026; for C75G G88U, no more than 0.026; for A30U U63A G84U, no more than 0.026. As for G28U U71G, the nonsense suppression is no more than 0.026. For U2G G28A A62C the value was no more than 0.026. On to U4G U35G C80A, for which the nonsense suppression was no more than 0.026. For A33C C56A G65C G67A C68A G73A C77G G88A the value was no more than 0.026. For C1A C56U the value was no more than 0.026. Take G28C U58A: the nonsense suppression is no more than 0.026. The figure for C3U A9G is 0.195; for C12G U16A it is no more than 0.026; for A9G U16A it is 0.845. For G32A U70C G85A the value was no more than 0.026; for G26U G61A, no more than 0.026; for C11A G61C, no more than 0.026.

Regarding U57A A89C, the nonsense suppression was no more than 0.026.

As to C11A C12A G15C C56U, the nonsense suppression is no more than 0.026. The figure for A23C C68U is no more than 0.026; for C5U U8C G10A G15U A33G it is no more than 0.026; for A24U U76C C77A G85C A89C it is no more than 0.026. For C11U U55A C81A the value was no more than 0.026; for U2G U35G U57G G85C A89G, no more than 0.026. For U2C C29U C34G G59C the value was no more than 0.026; for A24C C83G, no more than 0.026. Turning to U16A C72A U76C C79G, the nonsense suppression is no more than 0.026. Consider U4A C29U G59U G73A, for which the nonsense suppression was no more than 0.026.

For the variant U16A G19U U21G, the nonsense suppression was no more than 0.026.

With G6U A89G, the nonsense suppression is no more than 0.026. For C80G G88A the value was no more than 0.026; for G25U C72U, no more than 0.026; for C1U C68G, no more than 0.026.

Regarding A30C C80A, the nonsense suppression was no more than 0.026. The figure for A9G A30G G61A is 0.291; for U17A A24C A31U it is no more than 0.026. For U20G A23U A54U G61A the value was no more than 0.026; for G10A G78A, 0.0314.

Consider C3U A23U A62G G69A, for which the nonsense suppression was no more than 0.026. With C3A C11U G32A U58C A60C A89U, the nonsense suppression was no more than 0.026.

C34A U55G A62U: the nonsense suppression was no more than 0.026. The figure for G7A U63C is no more than 0.026; for C27U G67C it is no more than 0.026. With U8A C34G C75G, the nonsense suppression is no more than 0.026. For A31G G66C C77G the value was no more than 0.026; for C3U C5A G10U A13C G28A U58G A89U, no more than 0.026; for U21A U55C U57G, no more than 0.026. Take A33G G84U: the nonsense suppression is 0.222. The figure for A9G G15C U22G is no more than 0.026.

With G18U A30G G85A, the nonsense suppression is no more than 0.026.

Regarding A33U U58G, the nonsense suppression was no more than 0.026. Turning to U57C C83A, the nonsense suppression is no more than 0.026. With A9U C11U G28C G32C G88U, the nonsense suppression was no more than 0.026.

For the variant G10U G19C A23C C79G, the nonsense suppression was no more than 0.026.

With G7C A9C U17G, the nonsense suppression was no more than 0.026. U8A A33U A54C A62C: the nonsense suppression was no more than 0.026. The figure for G6A U76G is no more than 0.026; for A31U U55A it is no more than 0.026.

Consider A14C C34G U76C, for which the nonsense suppression is no more than 0.026. As for U4A C11A A14U, the nonsense suppression was no more than 0.026.

For U16C C82A, the nonsense suppression is no more than 0.026. The figure for C3A C27U A33G G59U G88U A89G is no more than 0.026; for U16A G61A it is 0.819; for C80G G84A it is no more than 0.026. In the case of A54U C56G U71G C80G, the nonsense suppression is no more than 0.026. The figure for G15A U58G C80G C81G G86U A87U is no more than 0.026; for C29G U35C A62C G85A it is no more than 0.026; for G59U U70A C81U it is no more than 0.026. With A54C C79G, the nonsense suppression was no more than 0.026. For the variant U2G C79A, the nonsense suppression is no more than 0.026. Turning to U22C G28U A31U G86U, the nonsense suppression was no more than 0.026.

As to A13U C34G G69C, the nonsense suppression was no more than 0.026. For C3A A54G G66C the value was no more than 0.026; for C1A G19C A31G A60U U71A C72G G84U, no more than 0.026; for G19C A24G C27G C80G G85C, no more than 0.026.

On to U76A C83G, for which the nonsense suppression is no more than 0.026. For U57A G73C the value was no more than 0.026.

In the case of G6A A13U, the nonsense suppression came out at 0.0458. On to U16G U22A, for which the nonsense suppression stood at 0.872. For U4C A9G U58A the value was no more than 0.026; for U4G A30U C72A, no more than 0.026; for U16C U22C C27U, no more than 0.026.

C3U G85U: the nonsense suppression was no more than 0.026. In the case of U21G A60G U70A C77G, the nonsense suppression was no more than 0.026. For G7U A33G the value was no more than 0.026; for A23C U55C C81G G84A, no more than 0.026; for C11A G26U A30G, no more than 0.026. For the variant A31U C34U C80G G85C, the nonsense suppression is no more than 0.026. In the case of G10C G73U, the nonsense suppression is no more than 0.026. As to G25U G85C, the nonsense suppression is no more than 0.026.

Consider C12U U58G A62G, for which the nonsense suppression is no more than 0.026.

Regarding C11A G86U, the nonsense suppression is no more than 0.026. On to A31G U35G, for which the nonsense suppression is no more than 0.026. As for C56A, the nonsense suppression was no more than 0.026. For G18U G32A C75G the value was no more than 0.026; for U4C G7C U8A A33C U57G, no more than 0.026. The figure for A14C C79U is no more than 0.026. As to U21G U55C C79A, the nonsense suppression was no more than 0.026. For A9G A33C G66U, the nonsense suppression was no more than 0.026. For C11G A54C G65A the value was no more than 0.026; for A13G C83G, no more than 0.026; for U4A C68A, no more than 0.026. As to U4G C34A G67A C75A, the nonsense suppression was no more than 0.026.

For the variant U58G A62U G86A G88A, the nonsense suppression was no more than 0.026.

Consider C27G U63C, for which the nonsense suppression is no more than 0.026. Turning to C34A C79A, the nonsense suppression was no more than 0.026. Take C5U G10C A23C A30U G78C: the nonsense suppression was no more than 0.026. The figure for G25A A33U is no more than 0.026. U22A C34A: the nonsense suppression was no more than 0.026.
